Measured values from article PMC12136788.
The list shows a part of the results.

T1: UNK ZnF1-6 (called full-length) (human, UniProt Q9C0B0 30-357)
T1 sequence: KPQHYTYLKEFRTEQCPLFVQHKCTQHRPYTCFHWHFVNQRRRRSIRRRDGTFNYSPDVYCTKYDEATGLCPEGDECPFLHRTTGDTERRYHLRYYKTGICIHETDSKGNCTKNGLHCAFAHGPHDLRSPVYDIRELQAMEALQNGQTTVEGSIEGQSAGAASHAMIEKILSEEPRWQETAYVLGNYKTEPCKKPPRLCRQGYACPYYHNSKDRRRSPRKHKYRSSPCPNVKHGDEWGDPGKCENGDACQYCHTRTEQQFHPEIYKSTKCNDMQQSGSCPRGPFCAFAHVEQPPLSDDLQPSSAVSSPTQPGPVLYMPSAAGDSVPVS

B1: ENSG00000125968:stop:overlap|stop_codon|ENSG00000125968|stop_codon|NA|stop_codon (ssRNA)
RNA: GGGAGUUCUACAGUCCGACGAUCGCACCCUCAACGGCGAGAUCAGCGCCCUGACGGCCGAGGUGAGAUCCAGAUCCGACCACUAGAUCAUCCUUAUACCGACGGGGAAACGGAGGCCAGAGAGGGCGUGGGCGCUUGCACCACCAACAGAGGAUUGAGCAUCA
B2: chr4:140153917:140154018:-|5pUTR|ENSG00000196782|msi1|FALSE|bound_elsewhere (ssRNA)
RNA: GGGAGUUCUACAGUCCGACGAUCUUUGCAGUCGCCUCGGACUGUCCAUGUGUUUACUUCCCCCAGCCCGAGGAUUCGAUAUCUAGGUUCCUGUGAAAUGCAACUGAGCAGCCAAAGUACUUUGAGAACACGGGGCGGCAUAAACAACAGAGGAUUGAGCAUCA
B3: chr15:78897113:78897311:+|3pUTR|ENSG00000185787|unk|FALSE|unique (ssRNA)
RNA: GGGAGUUCUACAGUCCGACGAUCUAACAAUUGAUGUUUGUUUUCUGUUUGAUUUUAAACAGAGAAAAAAUAAAAGGGGGUAAUAGCUCCUUUUUUCUUCUUUCUUUUUUUUUUUCAUUUCAAAAUUGCUGCCAGUGUUUUCAACAACAGAGGAUUGAGCAUCA
B4: ENSG00000136451:be:win_3751|3pUTR|ENSG00000136451|bound_else_gene|NA|bound_elsewhere_windowed (ssRNA)
RNA: GGGAGUUCUACAGUCCGACGAUCCUCCACAGUGGUCCAAGGAGCAGUCCUCAGUGGGGGCAGGUGUGGGCCCUACCCCUAAGCUAGAAUGUGGUUGUCAGAACCCUGAAAGUAUUAGUUCUAAAAAAAAAAAGAUAUAUACUACAACAGAGGAUUGAGCAUCA
B5: chr8:96333981:96334082:+|3pUTR|ENSG00000156471|msi1|total|mutant (ssRNA)
RNA: GGGAGUUCUACAGUCCGACGAUCUUAAGUUCAGGCCACUUUUCUGUCUUUUAUUUGGUUACUGUUGUUAUUUGUUUUUAAGUCCGGAUGCUUUUUAACAGCCUUCCGAAGCCGCUGCUGAAAUUGAUACUGGGGGAAGGGUUCCAACAGAGGAUUGAGCAUCA
B6: chr2:73730642:73730743:-|CDS|ENSG00000144034|unk|total|mutant (ssRNA)
RNA: GGGAGUUCUACAGUCCGACGAUCUUCAGACGCCGGAAACAAUGGUUAAUGAUCUUGUGUUUUUUUUUUCAUUUUUUUUCUCUCCGAUUUCAGAGGCUUUGAAAAAAUUUGGUAUCUCAGCAAAUGACACUUCAAUUCUAAUUGCAACAGAGGAUUGAGCAUCA
B7: chr1:93353930:93354034:+|CDS|ENSG00000117505|unk|total|mutant (ssRNA)
RNA: GGGAGUUCUACAGUCCGACGAUCUUUGGGAUUUGGCUCUUACAUCAGUGAAGUAAAAGAAGUCUUGCAAGAGUGUAAAACAGCCGCAUUAAAAAGAAGAAAGGCCAGUUCUCGUUUGGAAAACCUUGGCAUUCCUGAAGAAGACAACAGAGGAUUGAGCAUCA
B8: chr5:103210461:103210562:+|3pUTR|ENSG00000145725|unk|FALSE|unique (ssRNA)
RNA: GGGAGUUCUACAGUCCGACGAUCGAAUAAGGAGCUGGGAGAAAGGAGACCUGGGUAUUAAUCUCAGCUCUACCACUACAUGGUAGAGCUAUGUAGUGGUAGACUAUCUGGGAGACUCUAGAAUCUUUACCAUUCCCUCUACUACAACAGAGGAUUGAGCAUCA
B9: ENSG00000136451:be:win_151|CDS|ENSG00000136451|bound_else_gene|NA|bound_elsewhere_windowed (ssRNA)
RNA: GGGAGUUCUACAGUCCGACGAUCAAACCUCAGGGUGCACCAGAAACAUUAAAGGAUGCCAUUGGGAUUAAAAAAGAAAAACCCAAAACUUCAUUUGUGUGCACUUACUGCAGUAAAGCUUUCAGGGACAGCUAUCACCUGAGGCAACAGAGGAUUGAGCAUCA
B10: chr1:21217244:21217432:-|3pUTR|ENSG00000117298|msi1|total|mutant (ssRNA)
RNA: GGGAGUUCUACAGUCCGACGAUCCCGCUCCAGAGCUUUAAGGAAAAUGAAGUGAGACCCCUCCCCUCCGGCCUGGGGAGCCACCGGGCUGGCUUCUCUGUGGGUGCGUGGACGUGGGGUUGGGAGCUGGGAAUCUAUUUUUUGCAACAGAGGAUUGAGCAUCA
B11: chr9:14722165:14722672:-|CDS|ENSG00000147869|control|control|control (ssRNA)
RNA: GGGAGUUCUACAGUCCGACGAUCAUCCAGGGACUCAGAUAGUGAGCCCUUCCCACCUGGGACCCAGUCCCUCAUCCAGCCGAUAGAUGGAAUGAAAAUGGAGAAAUCUCCUCUUCGGGAAGAAGCCAAGAAAUUCUGGCACCACAACAGAGGAUUGAGCAUCA
B12: chr22:19969400:19969501:+|3pUTR|ENSG00000093010|msi1|total|mutant (ssRNA)
RNA: GGGAGUUCUACAGUCCGACGAUCUCCCCACUGGGCCUUGCUUACAGAAGAGGCAAUGGCUCAGACCAGCUCCCGCAUCCCUGCCGUUGCCUCCCUGGCCCAUGAGUGAGGAUGCAGUGCUGGUUUCUGCCCACCUACACCCCGCAACAGAGGAUUGAGCAUCA
B13: chr1:212100457:212100572:+|CDS|ENSG00000143476|unk|FALSE|unique (ssRNA)
RNA: GGGAGUUCUACAGUCCGACGAUCAGAAGAGGCUCUGUCUCCUCCGUCUCUCCCAAGCCACCUUCAUCUUUCAAGAUGUCGAUUAGAAACUGGGUGACCCGAACACCUUCCUCAUCACCACCCAUCACUCCACCUGCUUCGGAGCAACAGAGGAUUGAGCAUCA
B14: ENSG00000136451:be:win_2301|3pUTR|ENSG00000136451|bound_else_gene|NA|bound_elsewhere_windowed (ssRNA)
RNA: GGGAGUUCUACAGUCCGACGAUCAAAAAUCUACAAAUUGUGUUUUGCUAAGAAAAGCCUCAACUGACAGAGGAGAAGUCAAGUGUGUGGACAGGCAAGCUCCUAAUAAACAGAGUCCAGUGGGAUUCCUAUUUAGGAGCCAAGCAACAGAGGAUUGAGCAUCA
B15: chr1:100520103:100520216:+|3pUTR|ENSG00000079335|unk|total|mutant (ssRNA)
RNA: GGGAGUUCUACAGUCCGACGAUCUUACACAUGUGCCUACACCGACACACCAAGAAGUGGAUGUAUAUAAUACCGAAAGUAUACCGCAAAGUAAUUUUACUCUGAUAAUAAAAAUUGUUUGACAUGUAUUUUGUUAUGAACCGUCAACAGAGGAUUGAGCAUCA
B16: chr14:103503186:103503248:+|CDS_3pUTR|ENSG00000075413|msi1_unk|total|mutant (ssRNA)
RNA: GGGAGUUCUACAGUCCGACGAUCUGCUUCCAAAAUUGCCAAUGAGCUAAAGCUGUAACCCAGUGAUUAUGAUGUAAAUUAAGCCGCAAUUAAAGUGUUUUCCUGAACACUGAUGGAAAUGUACCGAAUAAUAUUCCGGCAAUACAACAGAGGAUUGAGCAUCA
B17: ENSG00000107863:be:win_3651|CDS|ENSG00000107863|bound_else_gene|NA|bound_elsewhere_windowed (ssRNA)
RNA: GGGAGUUCUACAGUCCGACGAUCUGUGAUAAGCAGUUUACUAAAAUCCUUCUUCAGAAAACUCCCUGAGCCUCUCUUCACAAAUGAUAAAUAUGCUGAUUUUAUUGAAGCCAAUCGUAAAGAAGAUCCUCUAGAUCGUCUGAACAACAGAGGAUUGAGCAUCA
B18: chr6:32292983:32294035:-|CDS|ENSG00000204296|control|control|control (ssRNA)
RNA: GGGAGUUCUACAGUCCGACGAUCACAGGAAGCCCAGGUAGAGAAGAGUGAGUUGAAGGUACCAAAAGGACAAGAAGGCCAAGUAGAGAAGACUGAGGCAGAUGUGCCAAAGGAACAAGAGGUCCAAGAAAAGAAGAGUGAGGCCAACAGAGGAUUGAGCAUCA
B19: chr4:68930545:68930765:-|CDS|ENSG00000135220|control|control|control (ssRNA)
RNA: GGGAGUUCUACAGUCCGACGAUCUCCCAUAUUUGGUGAUCAGCUUGAUAACAUAGCUCACAUGAAGGCCAAAGGAGCAGCUGUAGAAAUAAACUUCAAAACUAUGACAAGCGAAGAUUUACUGAGGGCUUUGAGAACAGUCAUCAACAGAGGAUUGAGCAUCA
B20: chr5:103029089:103029184:+|3pUTR|ENSG00000145730|msi1_unk|total|mutant (ssRNA)
RNA: GGGAGUUCUACAGUCCGACGAUCAACCAAGCUUUGAUUCCGAUUGAGUAAGAUUUACCCAGAAUGUCAGAUUCCUUUCCCUUCCGCACGUUUAAAGUUCUGUGUAUUUAAUUGUAAACUGUACCCGUCUGUGUGGGACUGUACCAACAGAGGAUUGAGCAUCA
B21: chr19:48970371:48970709:-|CDS|ENSG00000104812|control|control|control (ssRNA)
RNA: GGGAGUUCUACAGUCCGACGAUCCUAGGCCGGGUAGGACCCCCACUUUCCUAUCCUCUCCUGGCAAAUCAGCAGCUCCUGGCUAGGGGUCUUUGGUGCAGGGUGCAGGGUCUCAUCCUACUUGUAACAGUUGCUGUCCCUUUACAACAGAGGAUUGAGCAUCA
B22: chr1:35420597:35420698:+|3pUTR|ENSG00000146463|msi1|total|mutant (ssRNA)
RNA: GGGAGUUCUACAGUCCGACGAUCGUUCCUCUUAUUUUGUCUUUUGCACCAGUUUCUGGAGGCCCUUGUCAUUUCAAAAAGGACCGUCUCUUUUCUUACUCUGGCAAACCUGUGAGUGAUUCCACAAAGAUACAGUAUUACUUACAACAGAGGAUUGAGCAUCA

Biological target: T1, UNK ZnF1-6 (called full-length)
Assay: nsRBNS (natural sequence RNA bind-n-seq); RBNS binding buffer (assumed for nsRBNS): 25 mM Tris pH 7.5, 150 mM KCl, 3 mM MgCl2, 0.01% Triton X-100, 500 ug/ml BSA, 20 U/ml SUPERase-In, 4 C; UNK is unkempt and MSI1 is Musashi-1; names of the RNAs are library labels; protein concentration not given here; high values mean tight binding

Row | Binder | binding signal
1 | B1 | 0.625 enrichment R
2 | B2 | 0.686 enrichment R
3 | B3 | 0.958 enrichment R
4 | B4 | 1.48 enrichment R
5 | B5 | 0.869 enrichment R
6 | B6 | 0.388 enrichment R
7 | B7 | 0.606 enrichment R
8 | B8 | 0.726 enrichment R
9 | B9 | 0.442 enrichment R
10 | B10 | 0.792 enrichment R
11 | B11 | 0.883 enrichment R
12 | B12 | 0.403 enrichment R
13 | B13 | 0.772 enrichment R
14 | B14 | 0.516 enrichment R
15 | B15 | 0.344 enrichment R
16 | B16 | 0.327 enrichment R
17 | B17 | 0.483 enrichment R
18 | B18 | 1.07 enrichment R
19 | B19 | 0.551 enrichment R
20 | B20 | 0.347 enrichment R
21 | B21 | 0.98 enrichment R
22 | B22 | 0.507 enrichment R
